The other results are listed elsewhere or left out. Many values rest on one well or one pass, so single values are uncertain.
What was measured:
Assay in all cases: cell count relative to DMSO control; melanoma cells; higher = more viable cells
Conditions in all cases: library dose: standard library concentration; 72 h
SkMel28 = system: SkMel28
SkMel30 = system: SkMel30
SkMel5 = system: SkMel5
UACC257 = system: UACC257
UACC62 = system: UACC62
WM115 = system: WM115
WM1716 = system: WM1716
WM3526 = system: WM3526
SkMel2 = system: SkMel2
WM1745 = system: WM1745
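Further: cells treated in 1,536-well plates, then fixed and DAPI-stained, with nuclei counted from automated high-throughput microscope images.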

| Structure (SMILES) | cell count (SkMel28) [%] | cell count (SkMel30) [%] | cell count (SkMel5) [%] | cell count (UACC257) [%] | cell count (UACC62) [%] | cell count (WM115) [%] | cell count (WM1716) [%] | cell count (WM3526) [%] | cell count (SkMel2) [%] | cell count (WM1745) [%] |
| --- | --- | --- | --- | --- | --- | --- | --- | --- | --- | --- |
| Cc1ccc(Nc2nccc(N(C)c3ccc4c(C)n(C)nc4c3)n2)cc1S(N)(=O)=O [Pazopanib] + CC(C)CCN1c2nc(Nc3cc(F)c(O)c(F)c3)ncc2N(C)C(=O)C1C [BID1870] (first compound 2 µM, partner dose 1 µM) | 49.5 | 60.4 | 55.8 | 77.7 | 55.3 | 81.3 | 77.8 | 61.2 | – | – |
| CC1(C)CCC(c2ccc(Cl)cc2)=C(CN2CCN(c3ccc(C(=O)NS(=O)(=O)c4ccc(N[C@H](CCN5CCOCC5)CSc5ccccc5)c(S(=O)(=O)C(F)(F)F)c4)cc3)CC2)C1 + O=c1cc(-c2cccc3c2Sc2ccccc2S3)oc(N2CCOCC2)c1 [KU55933] (first compound 2 µM, partner dose 5 µM) | 63.5 | 79.3 | 67.8 | 33.3 | 74.6 | 80.5 | 52 | 77 | 61 | – |
| CC1(C)CCC(c2ccc(Cl)cc2)=C(CN2CCN(c3ccc(C(=O)NS(=O)(=O)c4ccc(N[C@H](CCN5CCOCC5)CSc5ccccc5)c(S(=O)(=O)C(F)(F)F)c4)cc3)CC2)C1 + Cc1cc([N+](=O)[O-])ccc1NS(=O)(=O)c1cc(Cl)ccc1Cl [FH535] (first compound 2 µM, partner dose 5 µM) | 42.5 | 56.3 | 53.7 | 34.5 | 66 | 62.7 | 27.8 | 57.1 | 72.4 | – |
| Cc1ccc(Nc2nccc(N(C)c3ccc4c(C)n(C)nc4c3)n2)cc1S(N)(=O)=O [Pazopanib] + COc1cc2ncnc(Nc3ccc(Oc4ccccc4)cc3)c2cc1OC [SrcI1] (first compound 2 µM, partner dose 10 µM) | 52.2 | 78.3 | 54.7 | 80.6 | 44.5 | 75.2 | 62.5 | 55.9 | 83.8 | – |
| CC1(C)CCC(c2ccc(Cl)cc2)=C(CN2CCN(c3ccc(C(=O)NS(=O)(=O)c4ccc(N[C@H](CCN5CCOCC5)CSc5ccccc5)c(S(=O)(=O)C(F)(F)F)c4)cc3)CC2)C1 + O=C1NC(=O)/C(=C/c2ccc(-c3ccc(F)cc3O)o2)S1 [AS252424] (first compound 2 µM, partner dose 5 µM) | 112 | 70 | 78.9 | 26.5 | 73.2 | 61.3 | 60 | 62 | 62.6 | – |
| O=C(/C=C/c1cccnc1)NCCCCC1CCN(C(=O)c2ccccc2)CC1 + NCC(=O)Nc1ccc(-n2nc(C(F)(F)F)cc2-c2ccc3c(ccc4ccccc43)c2)cc1 [OSU03012] (first compound 0.05 µM, partner dose 5 µM) | 33.4 | 47.5 | 73.2 | 76.8 | 74.2 | 78.8 | 71.1 | 48 | – | 97.4 |
| CC1(C)CCC(c2ccc(Cl)cc2)=C(CN2CCN(c3ccc(C(=O)NS(=O)(=O)c4ccc(N[C@H](CCN5CCOCC5)CSc5ccccc5)c(S(=O)(=O)C(F)(F)F)c4)cc3)CC2)C1 + Oc1nc(-c2ccc(C(F)(F)F)cc2)nc2c1CSCC2 [XAV939] (first compound 2 µM, partner dose 10 µM) | 44 | 91.1 | 49.2 | 29.4 | 78.9 | 84.4 | 35.6 | 103 | 80.9 | – |
| CC1(C)CCC(c2ccc(Cl)cc2)=C(CN2CCN(c3ccc(C(=O)NS(=O)(=O)c4ccc(N[C@H](CCN5CCOCC5)CSc5ccccc5)c(S(=O)(=O)C(F)(F)F)c4)cc3)CC2)C1 + O=C(Nc1ccccc1)c1cc([N+](=O)[O-])ccc1Cl [GW9662] (first compound 2 µM, partner dose 10 µM) | 51.9 | 44.6 | 67.8 | 29 | 75.3 | 73.2 | 41.7 | 70.2 | 73 | – |
| CC1(C)CCC(c2ccc(Cl)cc2)=C(CN2CCN(c3ccc(C(=O)NS(=O)(=O)c4ccc(N[C@H](CCN5CCOCC5)CSc5ccccc5)c(S(=O)(=O)C(F)(F)F)c4)cc3)CC2)C1 + O=S(=O)(c1ccccc1)N(CC(F)(F)F)c1ccc(C(O)(C(F)(F)F)C(F)(F)F)cc1 [T0901317] (first compound 2 µM, partner dose 7 µM) | 74.1 | 55.8 | 78.4 | 25.6 | 71.1 | 79 | 54 | 77.1 | 74.5 | – |
| O=C(/C=C/c1cccnc1)NCCCCC1CCN(C(=O)c2ccccc2)CC1 + Cn1cc(/C=C2\C(=O)Nc3cccnc32)c2ccccc21 [GW441756] (first compound 0.05 µM, partner dose 2 µM) | 75.6 | 124 | 87.9 | 101 | 67.5 | 105 | 112 | 132 | 21.5 | – |
| CC1(C)CCC(c2ccc(Cl)cc2)=C(CN2CCN(c3ccc(C(=O)NS(=O)(=O)c4ccc(N[C@H](CCN5CCOCC5)CSc5ccccc5)c(S(=O)(=O)C(F)(F)F)c4)cc3)CC2)C1 + Oc1cc(-c2nc(-c3ccccc3)[nH]c2-c2ccncc2)ccc1Cl [L779450] (first compound 2 µM, partner dose 1 µM) | 33.6 | 60 | 52.1 | 28.6 | 40.7 | 18.4 | 34.7 | 37.4 | 8.57 | – |
| O=C(/C=C/c1cccnc1)NCCCCC1CCN(C(=O)c2ccccc2)CC1 + COc1ccc2c(c1)CCC1C2CCC2(C)C(NCCCCCCN3C(=O)C=CC3=O)CCC12 [U73122] (first compound 0.05 µM, partner dose 2 µM) | 107 | 89.6 | 66.1 | 93.1 | 47.7 | 82.7 | 63.9 | 94.6 | 24.1 | – |
| Cc1ccc(Nc2nccc(N(C)c3ccc4c(C)n(C)nc4c3)n2)cc1S(N)(=O)=O [Pazopanib] + COC(=O)c1sccc1S(=O)(=O)Nc1ccc(Nc2ccccc2)cc1OC [GSK0660] (first compound 2 µM, partner dose 5 µM) | 64.2 | 85.9 | 70.3 | 77 | 84.3 | 102 | 75.1 | 81.8 | 84.8 | – |
| Cc1ccc(Nc2nccc(N(C)c3ccc4c(C)n(C)nc4c3)n2)cc1S(N)(=O)=O [Pazopanib] + Cn1cc(/C=C2\C(=O)Nc3cccnc32)c2ccccc21 [GW441756] (first compound 2 µM, partner dose 2 µM) | 78.1 | 87.2 | 81.6 | 78.7 | 48.9 | 117 | 94.4 | 85.1 | 104 | – |
| O=C(/C=C/c1cccnc1)NCCCCC1CCN(C(=O)c2ccccc2)CC1 + CCc1ccc(CCOc2ccc(CC3SC(=O)NC3=O)cc2)nc1 [pioglitazone] (first compound 0.05 µM, partner dose 10 µM) | 71.2 | 95 | 101 | 98.4 | 80.4 | 95 | 73.2 | 137 | 22.6 | – |
| O=C(/C=C/c1cccnc1)NCCCCC1CCN(C(=O)c2ccccc2)CC1 + O=C(O)C(=O)Nc1sc2c(c1C(=O)O)CCNC2 [TCS401] (first compound 0.05 µM, partner dose 8.33333 µM) | 74.3 | 135 | 96.6 | 85 | 79.6 | 83 | 74 | 87.4 | 60.5 | – |
| O=C(/C=C/c1cccnc1)NCCCCC1CCN(C(=O)c2ccccc2)CC1 + CCN(CC)CCCCNc1ncc2cc(-c3cc(OC)cc(OC)c3)c(NC(=O)NC(C)(C)C)nc2n1 [PD173074] (first compound 0.05 µM, partner dose 0.5 µM) | 86.2 | 97.6 | 85 | 94.5 | 74.5 | 76.8 | 83.6 | 95.5 | – | – |
| O=C(/C=C/c1cccnc1)NCCCCC1CCN(C(=O)c2ccccc2)CC1 + Cc1cc([N+](=O)[O-])ccc1NS(=O)(=O)c1cc(Cl)ccc1Cl [FH535] (first compound 0.05 µM, partner dose 5 µM) | 65.4 | 116 | 79.1 | 73.7 | 91.3 | 88.1 | 75.9 | 88 | 36.2 | – |

Source: the supplement of paper PMC4604168 (melanoma cell lines)
